Our source for the binding values is publication PMC2712070.

Chains of the proteins cited; added tags and fusions are not shown. Residues count along the entry.
UniProt Q04207: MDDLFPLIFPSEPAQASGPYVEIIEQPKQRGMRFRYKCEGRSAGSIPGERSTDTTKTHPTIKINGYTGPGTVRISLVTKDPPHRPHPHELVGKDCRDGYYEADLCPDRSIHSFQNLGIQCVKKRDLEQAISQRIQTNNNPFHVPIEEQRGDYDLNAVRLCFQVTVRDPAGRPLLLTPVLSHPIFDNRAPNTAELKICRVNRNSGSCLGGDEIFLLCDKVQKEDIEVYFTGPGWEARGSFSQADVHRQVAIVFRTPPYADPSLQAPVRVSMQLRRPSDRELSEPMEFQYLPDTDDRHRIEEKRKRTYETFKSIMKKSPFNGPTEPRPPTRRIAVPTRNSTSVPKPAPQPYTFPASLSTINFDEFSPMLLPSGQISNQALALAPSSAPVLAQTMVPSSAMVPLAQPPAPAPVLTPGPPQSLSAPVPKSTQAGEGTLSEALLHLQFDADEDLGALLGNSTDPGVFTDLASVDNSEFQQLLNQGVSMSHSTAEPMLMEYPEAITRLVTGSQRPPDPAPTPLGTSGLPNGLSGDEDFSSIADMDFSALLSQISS
UniProt P25799, residues 1-431: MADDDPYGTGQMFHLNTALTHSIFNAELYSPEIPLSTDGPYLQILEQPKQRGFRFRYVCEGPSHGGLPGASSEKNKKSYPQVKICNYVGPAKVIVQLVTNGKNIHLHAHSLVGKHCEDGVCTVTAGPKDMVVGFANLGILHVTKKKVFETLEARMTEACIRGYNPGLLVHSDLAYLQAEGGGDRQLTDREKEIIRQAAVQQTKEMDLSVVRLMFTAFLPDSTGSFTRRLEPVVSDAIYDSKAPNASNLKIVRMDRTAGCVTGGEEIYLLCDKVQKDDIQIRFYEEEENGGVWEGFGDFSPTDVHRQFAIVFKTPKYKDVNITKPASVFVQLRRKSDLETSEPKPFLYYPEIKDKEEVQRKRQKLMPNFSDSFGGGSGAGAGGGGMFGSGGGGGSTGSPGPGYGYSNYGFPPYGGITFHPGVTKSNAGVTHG
UniProt P03372: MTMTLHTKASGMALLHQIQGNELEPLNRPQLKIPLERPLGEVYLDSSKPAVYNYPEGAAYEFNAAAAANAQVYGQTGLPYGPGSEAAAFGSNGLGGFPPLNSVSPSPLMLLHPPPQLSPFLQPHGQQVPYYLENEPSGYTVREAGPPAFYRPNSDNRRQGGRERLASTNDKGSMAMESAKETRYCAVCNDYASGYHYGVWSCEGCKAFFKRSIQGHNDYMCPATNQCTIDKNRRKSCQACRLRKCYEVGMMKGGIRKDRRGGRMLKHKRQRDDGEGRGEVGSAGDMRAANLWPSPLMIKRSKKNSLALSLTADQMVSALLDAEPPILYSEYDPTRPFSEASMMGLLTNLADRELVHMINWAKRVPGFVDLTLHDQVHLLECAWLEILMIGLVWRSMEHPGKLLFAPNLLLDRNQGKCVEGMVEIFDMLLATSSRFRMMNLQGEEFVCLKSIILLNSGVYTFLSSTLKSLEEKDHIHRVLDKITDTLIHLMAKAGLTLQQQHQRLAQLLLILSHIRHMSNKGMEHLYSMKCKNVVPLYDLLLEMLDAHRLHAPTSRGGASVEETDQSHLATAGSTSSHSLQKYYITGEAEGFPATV
UniProt P19785: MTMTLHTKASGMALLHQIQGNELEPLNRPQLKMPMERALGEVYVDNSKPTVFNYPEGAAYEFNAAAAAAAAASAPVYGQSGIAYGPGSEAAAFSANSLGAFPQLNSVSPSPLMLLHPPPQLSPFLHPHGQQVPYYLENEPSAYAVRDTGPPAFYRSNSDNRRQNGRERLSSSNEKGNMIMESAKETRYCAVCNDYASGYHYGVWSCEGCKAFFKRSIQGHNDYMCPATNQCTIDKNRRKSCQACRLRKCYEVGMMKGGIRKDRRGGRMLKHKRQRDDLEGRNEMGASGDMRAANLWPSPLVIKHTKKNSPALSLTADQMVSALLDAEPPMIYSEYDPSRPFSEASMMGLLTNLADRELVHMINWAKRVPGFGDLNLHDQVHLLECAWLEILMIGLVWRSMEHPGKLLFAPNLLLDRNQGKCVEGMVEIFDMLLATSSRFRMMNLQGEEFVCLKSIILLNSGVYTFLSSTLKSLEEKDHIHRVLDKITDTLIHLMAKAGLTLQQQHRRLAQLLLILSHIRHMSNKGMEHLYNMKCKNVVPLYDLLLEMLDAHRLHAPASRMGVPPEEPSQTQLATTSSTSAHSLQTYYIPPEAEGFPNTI

Results are given in words; binding and its absence hold for the method and conditions named. For some assays here: In cells and extracts the contact can be indirect. Some entries that bind do so weakly or less than the wild type.

The target of assay [1] is T1, full length MS-KIF18A, recombinant (UniProt Q8NI77).
T1 sequence: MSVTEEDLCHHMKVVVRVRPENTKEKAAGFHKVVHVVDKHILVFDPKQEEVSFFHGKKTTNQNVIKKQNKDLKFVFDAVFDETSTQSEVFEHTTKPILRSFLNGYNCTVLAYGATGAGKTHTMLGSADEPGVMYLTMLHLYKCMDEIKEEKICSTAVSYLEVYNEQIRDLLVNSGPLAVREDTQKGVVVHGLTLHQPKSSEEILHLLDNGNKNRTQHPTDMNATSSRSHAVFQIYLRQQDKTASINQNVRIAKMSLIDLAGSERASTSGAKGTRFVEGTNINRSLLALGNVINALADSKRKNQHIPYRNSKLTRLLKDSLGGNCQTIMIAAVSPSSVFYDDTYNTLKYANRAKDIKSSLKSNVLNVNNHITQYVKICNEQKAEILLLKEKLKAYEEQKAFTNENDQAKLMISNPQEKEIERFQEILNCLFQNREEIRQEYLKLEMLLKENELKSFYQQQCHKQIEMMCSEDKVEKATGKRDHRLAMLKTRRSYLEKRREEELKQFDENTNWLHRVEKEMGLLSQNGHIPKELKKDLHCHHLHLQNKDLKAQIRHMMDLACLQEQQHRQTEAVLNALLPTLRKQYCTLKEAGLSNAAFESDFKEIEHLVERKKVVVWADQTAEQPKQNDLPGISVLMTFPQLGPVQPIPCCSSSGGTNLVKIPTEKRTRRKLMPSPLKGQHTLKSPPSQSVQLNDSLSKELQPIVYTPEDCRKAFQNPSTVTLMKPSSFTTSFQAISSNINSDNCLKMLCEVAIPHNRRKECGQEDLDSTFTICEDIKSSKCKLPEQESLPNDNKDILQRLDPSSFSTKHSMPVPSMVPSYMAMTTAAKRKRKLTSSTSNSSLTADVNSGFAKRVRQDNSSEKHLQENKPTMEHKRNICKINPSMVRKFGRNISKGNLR
The experiment in a line: co-IP; called pull down: 0.25 µg of recombinant proteins with poly- or monoclonal anti-MS-KIF18A or anti-ERα and Protein-A sepharose beads overnight at 4°C; western blot; both purified.

In assay [2] the target is T2, truncated MS-KIF18A construct 635-898 aa, recombinant (UniProt Q8NI77).
T2 sequence: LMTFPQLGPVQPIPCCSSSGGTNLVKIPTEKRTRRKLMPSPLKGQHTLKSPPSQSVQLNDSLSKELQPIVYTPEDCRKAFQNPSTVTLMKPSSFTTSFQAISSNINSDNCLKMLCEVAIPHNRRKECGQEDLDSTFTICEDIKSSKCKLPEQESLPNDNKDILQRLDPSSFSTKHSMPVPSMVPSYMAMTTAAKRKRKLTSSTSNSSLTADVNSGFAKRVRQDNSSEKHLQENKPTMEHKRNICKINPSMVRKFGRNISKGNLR
Described as above.

The target in assay [3] is T3, truncated MS-KIF18A construct 1-635 aa, recombinant (UniProt Q8NI77).
T3 sequence: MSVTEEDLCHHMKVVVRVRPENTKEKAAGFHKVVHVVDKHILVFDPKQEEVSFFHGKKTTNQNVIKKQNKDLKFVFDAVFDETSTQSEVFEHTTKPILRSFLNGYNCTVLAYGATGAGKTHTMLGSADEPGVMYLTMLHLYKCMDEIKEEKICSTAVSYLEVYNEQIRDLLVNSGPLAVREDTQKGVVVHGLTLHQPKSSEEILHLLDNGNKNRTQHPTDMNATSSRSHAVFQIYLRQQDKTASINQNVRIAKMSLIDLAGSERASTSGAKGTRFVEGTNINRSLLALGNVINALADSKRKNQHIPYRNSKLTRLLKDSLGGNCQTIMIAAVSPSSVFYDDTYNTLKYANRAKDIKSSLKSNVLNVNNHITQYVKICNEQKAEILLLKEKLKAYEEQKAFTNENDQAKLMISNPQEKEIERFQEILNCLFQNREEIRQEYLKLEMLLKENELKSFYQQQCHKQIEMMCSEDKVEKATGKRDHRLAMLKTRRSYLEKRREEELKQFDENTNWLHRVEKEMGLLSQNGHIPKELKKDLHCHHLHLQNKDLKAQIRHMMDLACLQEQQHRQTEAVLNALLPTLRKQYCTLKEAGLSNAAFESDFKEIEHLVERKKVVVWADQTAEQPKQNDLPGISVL
The description is as above.

The target of assay [4] is T4, MS-KIF18A, endogenous in MBA-15 cells (mouse (endogenous in MBA-15)) (UniProt Q91WD7).
T4 sequence: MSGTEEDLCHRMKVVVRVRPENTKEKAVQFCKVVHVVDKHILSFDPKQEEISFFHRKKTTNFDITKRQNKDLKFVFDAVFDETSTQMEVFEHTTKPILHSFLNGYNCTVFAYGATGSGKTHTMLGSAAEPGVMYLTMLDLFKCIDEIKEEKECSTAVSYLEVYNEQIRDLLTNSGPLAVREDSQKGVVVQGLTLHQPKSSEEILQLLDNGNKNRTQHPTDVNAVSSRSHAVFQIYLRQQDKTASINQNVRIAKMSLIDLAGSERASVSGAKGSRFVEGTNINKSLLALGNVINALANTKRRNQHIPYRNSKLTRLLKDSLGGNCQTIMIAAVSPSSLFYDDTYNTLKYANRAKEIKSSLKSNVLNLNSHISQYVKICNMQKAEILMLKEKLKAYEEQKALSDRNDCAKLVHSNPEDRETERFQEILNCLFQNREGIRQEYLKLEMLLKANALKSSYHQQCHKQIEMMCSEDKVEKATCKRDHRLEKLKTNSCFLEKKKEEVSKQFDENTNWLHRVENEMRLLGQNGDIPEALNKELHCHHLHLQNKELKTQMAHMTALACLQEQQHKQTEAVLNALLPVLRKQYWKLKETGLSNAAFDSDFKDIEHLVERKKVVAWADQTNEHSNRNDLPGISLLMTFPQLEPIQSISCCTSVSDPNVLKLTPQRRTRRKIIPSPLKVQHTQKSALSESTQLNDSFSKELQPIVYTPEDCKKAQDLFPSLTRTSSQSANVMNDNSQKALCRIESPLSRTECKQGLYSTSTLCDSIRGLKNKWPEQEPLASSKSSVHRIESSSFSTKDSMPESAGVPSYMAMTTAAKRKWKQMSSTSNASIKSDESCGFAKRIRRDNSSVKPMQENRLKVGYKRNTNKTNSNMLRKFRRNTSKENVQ
Nature of the assay: co-IP; cells fractionated to cytoplasm and nuclear/membrane extracts; IP with anti-MS-KIF18A, western blot with anti-ERα. Background: Immunoblotting shows a protein as a band on a membrane.

The target of assay [5] is NF-κB p65 subunit, endogenous (mouse (endogenous in MBA-15)) (UniProt Q04207). The experiment in a line: co-IP; cell lysates, IP with anti-p50 or anti-p65, western blot with anti-MS-KIF18A or anti-ERα.
In assay [6] the target is NF-κB p50 subunit, endogenous (mouse (endogenous in MBA-15)) (UniProt P25799). Described as above.

With “recombinant estrogen receptor alpha (from UniProt P03372 1-595)”, the binding entry in assay [1], in assay [2] and in assay [3] was “binds” each time.

As for “estrogen receptor alpha, endogenous in MBA-15 cells (from UniProt P19785 1-599)”, the binding result in assay [4], in assay [5] and in assay [6] was “binds” each time.

B1: MS-KIF18A, endogenous in MBA-15 cells (protein, UniProt Q91WD7 1-886)
chain: MSGTEEDLCHRMKVVVRVRPENTKEKAVQFCKVVHVVDKHILSFDPKQEEISFFHRKKTTNFDITKRQNKDLKFVFDAVFDETSTQMEVFEHTTKPILHSFLNGYNCTVFAYGATGSGKTHTMLGSAAEPGVMYLTMLDLFKCIDEIKEEKECSTAVSYLEVYNEQIRDLLTNSGPLAVREDSQKGVVVQGLTLHQPKSSEEILQLLDNGNKNRTQHPTDVNAVSSRSHAVFQIYLRQQDKTASINQNVRIAKMSLIDLAGSERASVSGAKGSRFVEGTNINKSLLALGNVINALANTKRRNQHIPYRNSKLTRLLKDSLGGNCQTIMIAAVSPSSLFYDDTYNTLKYANRAKEIKSSLKSNVLNLNSHISQYVKICNMQKAEILMLKEKLKAYEEQKALSDRNDCAKLVHSNPEDRETERFQEILNCLFQNREGIRQEYLKLEMLLKANALKSSYHQQCHKQIEMMCSEDKVEKATCKRDHRLEKLKTNSCFLEKKKEEVSKQFDENTNWLHRVENEMRLLGQNGDIPEALNKELHCHHLHLQNKELKTQMAHMTALACLQEQQHKQTEAVLNALLPVLRKQYWKLKETGLSNAAFDSDFKDIEHLVERKKVVAWADQTNEHSNRNDLPGISLLMTFPQLEPIQSISCCTSVSDPNVLKLTPQRRTRRKIIPSPLKVQHTQKSALSESTQLNDSFSKELQPIVYTPEDCKKAQDLFPSLTRTSSQSANVMNDNSQKALCRIESPLSRTECKQGLYSTSTLCDSIRGLKNKWPEQEPLASSKSSVHRIESSSFSTKDSMPESAGVPSYMAMTTAAKRKWKQMSSTSNASIKSDESCGFAKRIRRDNSSVKPMQENRLKVGYKRNTNKTNSNMLRKFRRNTSKENVQ
B1: the binding result in assay [5] is “no binding”; in assay [6] it was “binds”.
